Laboratory results as given in PubChem BioAssay AID624296 (National Center for Advancing Translational Sciences (NCATS), 2012).
Screen size: about 350,000 compounds; about 9,900 (2.8%) were called active. The shares of active, inactive and inconclusive entries below differ from those in the screen. Calls follow the shape of the dose curve; as a rule, active = well fitted activation curve with a large enough effect; inconclusive = small, poorly fitted or top-dose-only effect; inactive = no such curve, though single readings can be large or run the other way. No potency is given beside an inconclusive call; the fits are too rough.

experiment: A quantitative high throughput screen for small molecules that induce DNA re-replication in MCF 10a normal breast cells.; also: nearly all actives have a fitted effect of over 50% in size; details: MCF 10A DNA re-replication, Hoechst nuclear intensity, 48 h; series mostly up to 46.1 µM
Potency is read from the fitted curve at half-maximal effect; tags tell the direction and shape of the fitted curve.

Row | Structure (SMILES) | Potency
1 | CC1(C)CCCN(C(=O)c2ccc3c(c2NCCO)C(=O)c2ccccc2C3=O)C1 | inconclusive [activator, partial curve, poor fit]
2 | COc1cc(SC)ccc1C(=O)Nc1ccc2c(c1)OCCO2 | inconclusive [activator, single point]
3 | N#C/C(C(=O)N1CCOCC1)=C1/SC(Cc2ccc(F)cc2)C(=O)N1c1ccccc1 (centres undefined) | inconclusive [activator, partial curve, poor fit]
4 | Cc1ccc(C(C[N+](=O)[O-])c2c(C)[nH]n(-c3ccccc3)c2=O)cc1 (centres undefined) | inconclusive [activator, single point]
5 | CCCC[C@@]1(C2CCCC2)Cc2cc(OCC(=O)O)c(Cl)c(Cl)c2C1=O | inactive
6 | COc1ccc(CCNC(=O)c2nn(C)cc2Cl)cc1 | inconclusive [activator, single point]
7 | COc1ccc(NC(C)C(=O)Nc2ccc(C#N)cc2)cc1Cl (centres undefined) | inactive
8 | CCOc1ccc(NC(=S)N2CCC(C(O)(c3ccccc3)c3ccccc3)CC2)cc1 | inactive
9 | Nc1nn2c(-c3ccccc3)cc(=O)[nH]c2c1N=Nc1ccc(Br)cc1 | inconclusive [activator, partial curve, poor fit]
10 | COc1ccc(OC)c2sc(N(CCCN(C)C)C(=O)CCS(=O)(=O)c3ccccc3)nc12 | active: 5.8 µM
11 | O=C(O)c1ccc(NS(=O)(=O)Cc2ccc(Cl)c(Cl)c2)cc1 | inactive
12 | O=C(O)/C=C/C(=O)Nc1cccc2c1-c1ccccc1C2=O | inconclusive [activator, partial curve, poor fit]
13 | O=C1C=C(Nc2ccc(O)cc2)C(=O)c2ccccc21 | inconclusive [activator, partial curve, poor fit]
14 | O=c1c(Cl)c(N2CCOCC2)cnn1-c1ncc(C(F)(F)F)cc1Cl | inconclusive [activator, single point]
15 | CCOc1ccc(C(=O)C2CCN(C(=O)c3ccccc3C(=O)O)CC2)cc1 | inactive
16 | Cc1ccn2c(C(=O)CSc3ccccc3)c(C)nc2c1 | inconclusive [activator, partial curve, poor fit]
17 | COc1ccccc1N1CCN(S(=O)(=O)CCNC(=O)c2cccc(F)c2)CC1 | inactive
18 | CC(C)(C)N(Cc1ccc2c(c1)OCO2)C(=O)/C=C\S(=O)c1ccccc1 (centres undefined) | active: 10.3 µM
19 | O=C(Nc1nnc(S(=O)(=O)N2CCCCCC2)s1)c1ccc(Cl)cc1 | inconclusive [activator, single point]
20 | Cn1c(=O)c2c(nc(SCc3cccnc3)n2Cc2ccc(F)cc2)n(C)c1=O | inactive
21 | CCOC(=O)/C(C#N)=C1/C=CN(c2ccccc2)C=N1 | inactive
22 | Cc1ccc(-n2c(N)cc(=O)nc2SCC(=O)NC2CCCCC2)cc1C | inactive

Row | Structure (SMILES) | Potency
23 | COc1ccc(Cl)cc1NC(=O)C(C)N(C)Cc1ccc(C(F)(F)F)cc1 (centres undefined) | inconclusive [activator, single point]
24 | COc1ccc(-c2nc(C#N)c(NCCc3ccccc3)o2)cc1OC | inconclusive [activator, partial curve, poor fit]
25 | O=C(CNS(=O)(=O)c1ccc(Br)cc1)Nc1ccc2c(c1)OCCO2 | inactive
26 | COc1cc(CN(C)CCc2ccccc2)ccc1OCc1ccccc1 | inconclusive [activator, partial curve, poor fit]
27 | Clc1ccccc1C1CC(c2ccccc2)=Nc2ccccc2N1 (centres undefined) | inconclusive [activator, partial curve, poor fit]
28 | Cc1cc(C(=O)O)ccc1-c1ccc(/C=C2\NC(=O)N(Cc3ccccc3Cl)C2=O)o1 | active: 2.31 µM
29 | Cc1cc(C)c2sc(N(CCCN(C)C)C(=O)c3ccc(S(=O)(=O)N(C)Cc4ccccc4)cc3)nc2c1 | inconclusive [activator, single point]
30 | O=C1C(=O)N(Cc2cccnc2)C(c2cccc(Br)c2)/C1=C(/O)c1ccc2c(c1)OCO2 (centres undefined) | inactive
31 | Nc1c2c(nc3ccccc13)CSCC2 | inconclusive [activator, partial curve, poor fit]
32 | COc1ccc(-c2noc(COC(=O)c3ccco3)n2)cc1OC | inactive
33 | CCCCCCCSc1nnc(N)s1 | inconclusive [activator, single point]
34 | CCCN(C(=O)COC(=O)CNS(=O)(=O)c1ccc(NC(C)=O)cc1)C1CCS(=O)(=O)C1 (centres undefined) | inactive
35 | CCOC(=O)c1cc(-c2ccccc2)sc1NC(=O)COC(=O)c1ccc(Cl)c(S(N)(=O)=O)c1 | inconclusive [activator, full curve, poor fit]
36 | CCC(=NN=C(CC)c1ccccc1O)c1ccccc1O | inconclusive [activator, single point]
37 | COc1ccc(N2C(=O)C(CN3CCCCC3)C2c2ccccc2)cc1 (centres undefined) | inconclusive [activator, partial curve, poor fit]
38 | CCN(CCCNC(=O)c1cc2c(-c3cccc(OC)c3)nn(C)c2s1)Cc1ccccc1 | inconclusive [activator, partial curve, poor fit]
39 | Cc1noc(C)c1CSc1nnc(-c2ccccc2)n1Cc1ccco1 | inconclusive [activator, partial curve, poor fit]
40 | O=C(Oc1cccc2cccnc12)c1ccc2c(c1)OCCO2 | active: 3.26 µM
41 | O=C(Cc1ccccc1)Nc1cccc(N2C(=O)C=CC2=O)c1 | active: 11.6 µM
42 | COc1ccc(CC(=O)NNC(=O)c2nn(Cc3ccccc3)c(=O)c3ccccc23)cc1OC | inactive
43 | CC(=O)Nc1ccc(S(=O)(=O)N(C)c2ccc(OCC(=O)OCC(=O)NCc3ccco3)cc2)cc1 | inconclusive [activator, partial curve, poor fit]
44 | NNC(=O)c1cc2c(ccc3ccccc32)o1 | inconclusive [activator, single point]
